Numbering of substitutions follows the chain as printed; changes in the protein carry UniProt numbers. This is one part of the list.
B1: AGGAACG (DNA:RNA)
RNA: GGGAGACCGGAAUUCAGAUUGUCCAGGAACGUUAAAUCCCGUCGUAGCCACCA
DNA 1: CAATCTGAATTCCGGTCTCCC
DNA 2: TGGTGGCTACGACGGGATT
B2: CUCAUGC (DNA:RNA)
RNA: B1 RNA with A25C, G26U, G27C, A29U, C30G, G31C
DNA 1: CAATCTGAATTCCGGTCTCCC
DNA 2: TGGTGGCTACGACGGGATT
B3: AAAUGUG (DNA:RNA)
RNA: B1 RNA with G26A, G27A, A28U, A29G, C30U
DNA 1: CAATCTGAATTCCGGTCTCCC
DNA 2: TGGTGGCTACGACGGGATT
B4: UCUAGAA (DNA:RNA)
RNA: B1 RNA with A25U, G26C, G27U, A29G, C30A, G31A
DNA 1: CAATCTGAATTCCGGTCTCCC
DNA 2: TGGTGGCTACGACGGGATT
B5: GCCGCGC (DNA:RNA)
RNA: GGGAGACCGGAAUUCAGAUUGUCCGCCGCGCUUAAAUCCCGUCGUAGCCACCA
DNA 1: CAATCTGAATTCCGGTCTCCC
DNA 2: TGGTGGCTACGACGGGATT
B6: AACGAAA (DNA:RNA)
RNA: B1 RNA with G26A, G27C, A28G, C30A, G31A
DNA 1: CAATCTGAATTCCGGTCTCCC
DNA 2: TGGTGGCTACGACGGGATT
B7: CUGGAUA (DNA:RNA)
RNA: B1 RNA with A25C, G26U, A28G, C30U, G31A
DNA 1: CAATCTGAATTCCGGTCTCCC
DNA 2: TGGTGGCTACGACGGGATT
B8: AACAACC (DNA:RNA)
RNA: B1 RNA with G26A, G27C, G31C
DNA 1: CAATCTGAATTCCGGTCTCCC
DNA 2: TGGTGGCTACGACGGGATT
B9: CACUGCA (DNA:RNA)
RNA: B1 RNA with A25C, G26A, G27C, A28U, A29G, G31A
DNA 1: CAATCTGAATTCCGGTCTCCC
DNA 2: TGGTGGCTACGACGGGATT
B10: GACCCGG (DNA:RNA)
RNA: B5 RNA with C26A, G28C, C31G
DNA 1: CAATCTGAATTCCGGTCTCCC
DNA 2: TGGTGGCTACGACGGGATT
B11: UUUAUAG (DNA:RNA)
RNA: B1 RNA with A25U, G26U, G27U, A29U, C30A
DNA 1: CAATCTGAATTCCGGTCTCCC
DNA 2: TGGTGGCTACGACGGGATT
B12: AAUGUGG (DNA:RNA)
RNA: B1 RNA with G26A, G27U, A28G, A29U, C30G
DNA 1: CAATCTGAATTCCGGTCTCCC
DNA 2: TGGTGGCTACGACGGGATT
B13: AGAUAAA (DNA:RNA)
RNA: B1 RNA with G27A, A28U, C30A, G31A
DNA 1: CAATCTGAATTCCGGTCTCCC
DNA 2: TGGTGGCTACGACGGGATT
B14: CGGUUCU (DNA:RNA)
RNA: B1 RNA with A25C, A28U, A29U, G31U
DNA 1: CAATCTGAATTCCGGTCTCCC
DNA 2: TGGTGGCTACGACGGGATT
B15: AUGCUUA (DNA:RNA)
RNA: B1 RNA with G26U, A28C, A29U, C30U, G31A
DNA 1: CAATCTGAATTCCGGTCTCCC
DNA 2: TGGTGGCTACGACGGGATT
B16: AUUUGUC (DNA:RNA)
RNA: B1 RNA with G26U, G27U, A28U, A29G, C30U, G31C
DNA 1: CAATCTGAATTCCGGTCTCCC
DNA 2: TGGTGGCTACGACGGGATT
B17: GAUGGUA (DNA:RNA)
RNA: B5 RNA with C26A, C27U, C29G, G30U, C31A
DNA 1: CAATCTGAATTCCGGTCTCCC
DNA 2: TGGTGGCTACGACGGGATT
B18: UAUUGUC (DNA:RNA)
RNA: B5 RNA with G25U, C26A, C27U, G28U, C29G, G30U
DNA 1: CAATCTGAATTCCGGTCTCCC
DNA 2: TGGTGGCTACGACGGGATT
B19: AACCCAA (DNA:RNA)
RNA: B5 RNA with G25A, C26A, G28C, G30A, C31A
DNA 1: CAATCTGAATTCCGGTCTCCC
DNA 2: TGGTGGCTACGACGGGATT
B20: GGCGCUA (DNA:RNA)
RNA: B5 RNA with C26G, G30U, C31A
DNA 1: CAATCTGAATTCCGGTCTCCC
DNA 2: TGGTGGCTACGACGGGATT

The binders below were run against T1, RBFOX1 RRM (Homo sapiens, UniProt Q9NWB1 109-208) (assay: EMSA; HiTS-Eq, 1 nM pool, 10 min; buffer printed only for the single-RNA assays: 10 mM Tris pH 7.5, 150 mM NaCl, 3.4 mM EDTA, 0.001% NP-40, 30 C). Conditions: tags: His6 N-terminal (pET28a); label: 5' 32P.
T1 sequence: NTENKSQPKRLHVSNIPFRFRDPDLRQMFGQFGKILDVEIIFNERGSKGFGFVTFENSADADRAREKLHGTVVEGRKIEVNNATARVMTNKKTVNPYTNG
In short: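 A pool of RNA with 7 randomized nucleotides, 5′-radiolabelled and with DNA-annealed flanks, was equilibrated at 1 nM for 10 min in 50 µL with purified RbFox RRM, wild type or mutant, across increasing protein concentrations. Free RNA was separated by 8% native PAGE, excised, reverse-transcribed, barcoded by PCR and sequenced. Relative association constants were obtained from read-count changes of each RNA species versus the control reaction and normalised to the cognate motif.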
B1 was tested, and the binding signal was 0.0234 KA relative to UGCAUGU.
For B2, the binding signal was 0.0103 KA relative to UGCAUGU.
With B3 the binding signal was 0.01 KA relative to UGCAUGU.
For B4, the binding signal was 0.00428 KA relative to UGCAUGU.
With B5 the binding signal was 0.0197 KA relative to UGCAUGU.
B6 was tested, and the binding signal was 0.00329 KA relative to UGCAUGU.
In the case of B7, the binding signal is reported as 0.0159 KA relative to UGCAUGU.
With B8 the binding signal was 0.000774 KA relative to UGCAUGU.
In the case of B9, the binding signal is reported as 0.0115 KA relative to UGCAUGU.
For B10, the binding signal was 0.0136 KA relative to UGCAUGU.
B11 was tested, and the binding signal was 0.0083 KA relative to UGCAUGU.
B12 was tested, and the binding signal was 0.0107 KA relative to UGCAUGU.
In the case of B13, the binding signal is reported as 0.00192 KA relative to UGCAUGU.
B14 was tested, and the binding signal was 0.014 KA relative to UGCAUGU.
B15 was tested, and the binding signal was 0.00763 KA relative to UGCAUGU.
With B16 the binding signal was 0.0101 KA relative to UGCAUGU.
For B17, the binding signal was 0.0226 KA relative to UGCAUGU.
B18 was tested, and the binding signal was 0.0146 KA relative to UGCAUGU.
In the case of B19, the binding signal is reported as 0.000805 KA relative to UGCAUGU.
B20 was tested, and the binding signal was 0.00672 KA relative to UGCAUGU.

From publication PMC9911399, “Two distinct binding modes provide the RNA-binding protein RbFox with extraordinary sequence specificity”
